Experiment in all cases: Primary Screen for Target Class Profiling of Small Molecule Inhibitors of Methyltransferases
In experiment [1] the target is Glycine N-methyltransferase (Homo sapiens) (UniProt Q14749). The following applies: purified enzyme, MTase-Glo SAH luminescence; measured here: GNMT inhibition; at 40 µM; stronger effect = lower value. In short, it runs like this: (§1)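 Each enzyme was assayed with SAM and its substrate. SAH formation detected by MTase-Glo luminescence; single-point 40 uM screen[…].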

In experiment [2] the target is Guanidinoacetate N-methyltransferase (Homo sapiens) (UniProt Q14353). The following applies: purified enzyme, MTase-Glo SAH luminescence; measured here: GAMT inhibition; at 40 µM; stronger effect = lower value. A digest of the protocol:
as §1

Experiment [3] deals with Histamine N-methyltransferase (Homo sapiens) (UniProt P50135). The following applies: purified enzyme, MTase-Glo SAH luminescence; measured here: HNMT inhibition; at 40 µM; stronger effect = lower value. In short, it runs like this:
as §1

In experiment [4] the target is Nicotinamide N-methyltransferase (Homo sapiens) (UniProt P40261). The following applies: purified enzyme, MTase-Glo SAH luminescence; measured here: NNMT inhibition; at 40 µM; stronger effect = lower value. A digest of the protocol:
as §1

Experiment [5] concerns the target Phenylethanolamine N-methyltransferase (Homo sapiens) (UniProt P11086). The following applies: purified enzyme, MTase-Glo SAH luminescence; measured here: PNMT inhibition; at 40 µM; stronger effect = lower value. In short, it runs like this: as §1

This is one part of the list. The main result of the screen is listed elsewhere. These columns were measured beside it and carry no call.
% is scaled to controls: 0 for no effect and ±100 for the full control effect.

Turning to `COCc1nc(-c2ccc(OC3CN(C(=O)NCc4ccc(OC)cc4)C3)cc2)no1`, the activity change, negative = inhibition in experiment [1] was -2.23%; in experiment [2], -1.72%; in experiment [3] it was -0.929%; in experiment [4] it was -1.68%; in experiment [5], -5.33%.
For `CC(C)(C)c1ccc(C(=O)NC(Cc2c[nH]c3ccccc23)C(=O)OCC(=O)c2ccccc2)cc1` (stereo not given) the same measures were 6.86%, 0%, 1.49%, 1.23% and 0.54%.
As to `CC(=O)C1CCC2(C)C3=C(CCC12C)C1(C)CCC(=O)C(C)(C)C1CC3` (stereo not given), the activity change, negative = inhibition in experiment [1] was 1.99%; in experiment [2], 1.66%; in experiment [3], 14.8%; in experiment [4], -15%; in experiment [5] it was 5.23%.
As to `CC1(c2noc(C3CC3)n2)CCN(C(=O)CCCc2nc3ccccc3s2)CC1`, the activity change, negative = inhibition in experiment [1] is -5.78%; in experiment [2], -4.61%; in experiment [3], -2.47%; in experiment [4] it was -12.2%; in experiment [5], -6.97%.
As for `CNC(=O)N1CCCC(n2c(C)cnc2-c2ccncc2)C1` (stereo not given), the activity change, negative = inhibition in experiment [1] was -2.5%; in experiment [2], -6.37%; in experiment [3] it was 1.03%; in experiment [4], -2.02%; in experiment [5] it was -1.8%.
Turning to `Cc1ccccc1Cc1c(C)nc2c(C(=O)N3CCC(Cc4nncn4CC4CC4)CC3)cnn2c1C`, the activity change, negative = inhibition in experiment [1] is -4.7%; in experiment [2], 1.52%; in experiment [3], -4.23%; in experiment [4], -22.4%; in experiment [5], -5.49%.
For `CCN(CCCNC(=O)CCCc1nnc2n3nc(C)nc3c3ccccc3n12)c1ccccc1` the same measures were -14.6%, 0.973%, 0.152%, 15.8% and 3.79%.
On the same counts, the results for `C/C(=C\CCC(C)CCO)C(=O)OC1(C)CCC2C(C(=O)O)=COC(OC3OC(CO)C(O)C(O)C3O)C21` (stereo not given) are 1.14%, 3.3%, 9.72%, -9.37% and -5.12%.
With `COc1cccc(CNC(=O)NC2CCc3n[nH]c(=O)n3CC2)c1` (stereo not given), the activity change, negative = inhibition in experiment [1] is -1.86%; in experiment [2], -1.09%; in experiment [3], -1.46%; in experiment [4], -2.78%; in experiment [5], -4.02%.
In the case of `CC(C)CCNC(=O)C1(C)Cn2nc(C(=O)NCCC3=CCCCC3)cc2C(=O)N1C` (stereo not given), the activity change, negative = inhibition in experiment [1] was -2.25%; in experiment [2], 2.59%; in experiment [3], 3%; in experiment [4], -1.86%; in experiment [5], -1.12%.
As to `CN1C(=O)c2cc(C(=O)NCCCc3ccccc3)nn2CC1(C)C(=O)NCc1ccc(F)cc1` (stereo not given), the activity change, negative = inhibition is 3.48% in experiment [1]; 0% in experiment [2]; 1.6% in experiment [3]; 1.77% in experiment [4]; 1.56% in experiment [5].
As for `CC1(C(=O)NC2CCCC2)Cn2c(c(-n3cccc3)c3ccccc32)C(=O)N1Cc1ccccc1` (stereo not given), the activity change, negative = inhibition is 8.56% in experiment [1]; 1.54% in experiment [2]; 5.87% in experiment [3]; 8.42% in experiment [4]; 5.1% in experiment [5].
For `CC1(C(=O)NC2CCCCCCC2)Cn2c(ccc2-c2ccco2)C(=O)N1Cc1ccccc1` (stereo not given) the same measures were -6.56%, 4.12%, -3.56%, -12.7% and -5.92%.
Consider `O=c1cc(NCCCN[C@@H]2CCOc3c(Br)cc(Br)cc32)[nH]c2ccsc12`, for which the activity change, negative = inhibition is -5.47% in experiment [1]; -15.9% in experiment [2]; 0.137% in experiment [3]; -48.8% in experiment [4]; -24.1% in experiment [5].
In the case of `O=C(N[C@H](c1cccs1)C1CC(O)C1)c1cnn2cc(CCO)cnc12` (stereo not given in full), the activity change, negative = inhibition was -3.07% in experiment [1]; -5.71% in experiment [2]; -4.37% in experiment [3]; -5.61% in experiment [4]; -0.134% in experiment [5].
As for `Cc1cc2c(cc3n2CC(C)(C(=O)NC2CCCCCC2)N(Cc2ccc(Cl)cc2)C3=O)o1` (stereo not given), the activity change, negative = inhibition amounted to 0.292% in experiment [1]; 3.68% in experiment [2]; 2.44% in experiment [3]; 2.41% in experiment [4]; 3.05% in experiment [5].
With `COC(=O)c1ccc(C)c2c1C1C=CCC1[C@@H](c1ccc(C(=O)O)cc1)N2` (stereo not given in full), the activity change, negative = inhibition in experiment [1] was -34.7%; in experiment [2] it was 3.99%; in experiment [3], 2.68%; in experiment [4] it was 5.74%; in experiment [5], -1.95%.
On to `COc1ccc(-c2cc3n(n2)CC(C)(C(=O)NCc2ccccc2OC)N(CCCc2ccccc2)C3=O)cc1` (stereo not given), for which the activity change, negative = inhibition amounted to 8.49% in experiment [1]; 1.45% in experiment [2]; 6.85% in experiment [3]; 8.13% in experiment [4]; 1.63% in experiment [5].
On to `Cc1ccc(C)c(N2CCN(C(=O)CCc3nnc4n(CC(C)C)c(=O)c5ccccc5n34)CC2)c1`, for which the activity change, negative = inhibition in experiment [1] was -9.04%; in experiment [2] it was 0%; in experiment [3] it was 8.62%; in experiment [4] it was -1.09%; in experiment [5], -1.07%.
For `CN(C)CCC=C1c2ccccc2CCc2ccccc21` the same measures were -3.03%, 9.48%, -51.5%, -14.5% and 2.22%.
As to `CCOC(=O)c1cccc(N2C(=O)c3cc(C(=O)OCC)nn3CC2(C)C(=O)NCCC(C)C)c1` (stereo not given), the activity change, negative = inhibition was -8.29% in experiment [1]; 0.462% in experiment [2]; -7.82% in experiment [3]; -8.55% in experiment [4]; -9.97% in experiment [5].
With `N#Cc1c[nH]c2c(C(=O)N3CCN(CCc4ccc(F)cc4)CC3)cccc12`, the activity change, negative = inhibition is -6.85% in experiment [1]; -7.14% in experiment [2]; 3.09% in experiment [3]; -22% in experiment [4]; -11.8% in experiment [5].
`O=c1[nH]c2ccc(S(=O)(=O)N3CCCc4ccccc43)cc2[nH]1`: the activity change, negative = inhibition was 3.88% in experiment [1]; 0.642% in experiment [2]; 4.38% in experiment [3]; -3.24% in experiment [4]; -15% in experiment [5].
For `CCc1noc([C@@H]2CC(F)(F)CN2C(=O)c2cc(C3CC3)[nH]n2)n1`, the activity change, negative = inhibition was -0.222% in experiment [1]; -0.591% in experiment [2]; 0.995% in experiment [3]; 1.87% in experiment [4]; 3.84% in experiment [5].
For `CCn1nccc1C(=O)N1CCC(Nc2nccnc2OC)CC1` the same measures were -5.97%, -7.22%, -2.02%, -5.76% and -2.16%.
With `O=c1c2ccccc2n2c(=O)n(Cc3ccccc3Cl)nc2n1Cc1ccc(F)cc1`, the activity change, negative = inhibition came out at 4.61% in experiment [1]; 3.17% in experiment [2]; 6.2% in experiment [3]; 8.09% in experiment [4]; 3.91% in experiment [5].
For the molecule `Cc1[nH]c(=O)c(C#N)cc1-c1ccncc1`, the activity change, negative = inhibition in experiment [1] was 1.21%; in experiment [2] it was 14.7%; in experiment [3] it was 12.1%; in experiment [4], -0.939%; in experiment [5] it was 5.82%.
For the molecule `CN(Cc1cc(F)c(F)c(F)c1)C1CCc2nn(CC3CC3)c(=O)n2CC1` (stereo not given), the activity change, negative = inhibition in experiment [1] is -2.96%; in experiment [2], 3.07%; in experiment [3], 3.58%; in experiment [4], -3.58%; in experiment [5], 1.88%.
In the case of `CC(=O)c1ccc(Nc2nc3c(S(=O)(=O)c4ccccc4)nnn3c3ccc(Cl)cc23)cc1`, the activity change, negative = inhibition in experiment [1] was -8.22%; in experiment [2] it was 0%; in experiment [3] it was 4.55%; in experiment [4], -1.15%; in experiment [5], -1.58%.

Source of the values: PubChem BioAssay AID1745853 (National Center for Advancing Translational Sciences (NCATS), 2022).
